# Results taken from the supplement of paper PMC3334620.
# Whole data set: some 33,000 sequences, median “E-score (-0.5 to 0.5)” near -0.035, cut for the highest 2% near 0.35. This is one part of the list.
# Target: T1, Pdr3 (UniProt P33200)
# T1 sequence: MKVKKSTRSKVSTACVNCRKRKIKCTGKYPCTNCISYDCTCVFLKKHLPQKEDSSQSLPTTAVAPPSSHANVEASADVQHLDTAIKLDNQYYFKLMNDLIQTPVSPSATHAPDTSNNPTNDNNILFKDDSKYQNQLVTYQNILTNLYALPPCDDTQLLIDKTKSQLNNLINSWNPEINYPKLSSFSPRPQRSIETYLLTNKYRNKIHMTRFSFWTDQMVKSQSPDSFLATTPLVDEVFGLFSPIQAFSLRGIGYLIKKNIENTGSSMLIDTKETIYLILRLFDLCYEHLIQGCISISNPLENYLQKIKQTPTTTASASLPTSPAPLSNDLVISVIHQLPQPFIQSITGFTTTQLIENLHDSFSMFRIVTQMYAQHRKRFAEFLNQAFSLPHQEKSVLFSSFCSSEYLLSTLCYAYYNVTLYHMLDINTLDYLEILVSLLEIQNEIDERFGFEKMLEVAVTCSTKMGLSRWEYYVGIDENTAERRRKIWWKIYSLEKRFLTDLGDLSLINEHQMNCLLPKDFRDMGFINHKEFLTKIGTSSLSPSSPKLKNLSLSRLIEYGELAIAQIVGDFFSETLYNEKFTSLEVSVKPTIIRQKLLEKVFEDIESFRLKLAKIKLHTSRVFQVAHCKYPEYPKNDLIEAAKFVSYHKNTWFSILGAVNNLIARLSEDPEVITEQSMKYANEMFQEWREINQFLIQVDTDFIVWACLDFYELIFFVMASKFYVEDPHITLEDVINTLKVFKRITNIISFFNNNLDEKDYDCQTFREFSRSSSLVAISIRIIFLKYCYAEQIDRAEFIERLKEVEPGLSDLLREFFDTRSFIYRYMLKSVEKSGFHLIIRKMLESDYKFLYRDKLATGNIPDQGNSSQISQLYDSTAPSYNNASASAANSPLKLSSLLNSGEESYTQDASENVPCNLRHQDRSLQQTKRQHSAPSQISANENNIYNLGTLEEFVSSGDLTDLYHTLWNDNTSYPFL
# Test: PBM E-score (8-mer binding enrichment) (E-score (-0.5 to 0.5)); higher = stronger / more preferred TF binding; most listed sequences are background and not binding sites
# Details: protein concentration: 200 nM; construct: GST-full length
# Outline: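 Universal all-10-mer Agilent arrays, fresh or stripped once, were converted to double-stranded form by primer extension. GST-tagged yeast transcription factors from PURExpress in vitro transcription/translation, full-length or DNA-binding domain only, were applied at about 100-200 nM and detected with fluorescent anti-GST. After masliner normalisation, the Universal PBM Analysis Suite scored each ungapped eight-base word together with its reverse complement by E-score.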
row,Sequence,PBM E-score
1,CTAGTGTC,0.0125
2,AGGACGTG,-0.15
3,GTTCTCGA,-0.0688
4,AATTAATT,-0.123
5,GAAGGTCC,0.13
6,GGTCAATA,-0.124
7,ATGGTTCG,0.0613
8,CGATGGGA,0.173
9,CCAGGGAA,-0.132
10,GTGTCACA,0.0846
11,ACGTTACC,-0.0343
12,TGGGTTAA,-0.123
13,ACACCTGG,-0.159
14,CGTTGATA,0.12
15,GGGCCAAA,0.106
16,GTTCCAGA,-0.0517
17,ATTCAATC,0.17
18,GCAGCAGC,-0.0415
19,ACGTACAG,-0.229
20,ACGACGCG,0.0646
21,CACTGTGG,-0.133
22,GCACATCA,-0.0746

row,Sequence,PBM E-score
1,TAGACTAA,-0.29
2,AGGAGATG,-0.095
3,GGTGCGTA,-0.00871
4,AAAATTTG,-0.248
5,GGAGCACA,0.0257
6,AGCGCTCC,0.035
7,ATGGTGTA,-0.266
8,CCACAGCA,-0.0435
9,CATCTTGC,-0.0252
10,ACCGCAAT,0.158
11,AACACGCG,-0.119
12,AGCGTAAA,-0.0667
13,ATGCTAAA,-0.162
14,CAAAAATC,-0.175
15,ATTTGCCA,-0.287
16,AGATAACT,-0.122
17,GCGGATCA,0.296
18,TCTCACCA,0.117
19,CATATGCC,-0.00179
20,AAAAGCGT,-0.0607
21,AAGCTATC,0.109
22,ATGTACGA,0.0462

row,Sequence,PBM E-score
1,CAGGAACG,-0.0257
2,GTAATTCA,-0.0724
3,GCCATGAC,-0.185
4,CGACAGGC,-0.162
5,ACGGGTAG,0.0793
6,ACCTCCAG,-0.172
7,GTAACCGA,0.0824
8,ATGAAGTG,-0.0256
9,CTGAGAGA,-0.189
10,ATCAGTGC,-0.173
11,ACCAATCC,0.182
12,AAACTGGT,-0.00599
13,CCTTGAAC,-0.137
14,GACACTGA,-0.00525
15,GAGTGTAC,-0.0902
16,GTAGCACA,-0.147
17,CTCAAATA,-0.118
18,GGTAAGAC,-0.0755
19,ACAAGGCC,-0.111
20,AGCTGGAT,-0.0726
21,CTTATACA,-0.217
22,CTGATTTA,-0.0745

row,Sequence,PBM E-score
1,AACCGGAT,0.316
2,ATGTTCCG,0.48
3,GATCATCC,0.221
4,ACAATTAG,-0.156
5,CCCGCACC,0.225
6,AGAGACAT,-0.0527
7,AGTGACGA,-0.0467
8,CACGTCCG,0.229
9,AGAGTTTA,0.0734
10,GGGGTTAA,0.0549
11,CGGACGGA,0.367
12,AAAAGGTG,-0.119
13,ATACTAGG,0.0531
14,AAGGGCCC,0.00697
15,ATCACGCG,0.119
16,AGCGTACA,-0.276
17,ATCATGGG,-0.0668
18,CCCCCGAG,-0.0658
19,AGGCCCGG,0.115
20,AGAAGTTA,-0.145
